Experiments:
Test in all cases: ELISA, GF coated, laminin 10 nM
laminin-111 = molecular target: T1, laminin-111 (human, UniProt P25391 18-3075; P07942 22-1786; P11047 34-1609)
T1 construct: Full-length recombinant human laminin isoform (BioLamina); Chain composition is read from the isoform name
Protocol: (§1) ELISA tests were performed as previously reported. In brief, ELISA plates (med-binding, Greiner Bio-One) were coated with 50 nM GFs at 37° C. for more than 2 hrs. […] Bound laminin was detected with rabbit anti-human laminin γ1 chain antibody (1:1000 dilution, Assay biotech) or rabbit anti-human laminin α3 chain antibody (1:1000 dilution, Assay biotech). After incubation with biotinylated anti-rabbit antibody for 60 min at room temperature (RT), HRP conjugated streptavidin (Jackson ImmunoResearch) was added. After 60 min of incubation at RT, 50 μL TMB substrate (Sigma-Aldrich) was added. The reactions were stopped by adding 25 μL of 2 N H₂SO₄. Subsequently, the absorbance at 450 nm was measured with a reference of 570 nm.

laminin-211 = molecular target: T2, laminin-211 (human, UniProt P24043 23-3122; P07942 22-1786; P11047 34-1609)
T2 construct: Full-length recombinant human laminin isoform (BioLamina); chains read from the isoform name
Protocol: as §1

laminin-411 = molecular target: T3, laminin-411 (human, UniProt Q16363 25-1823; P07942 22-1786; P11047 34-1609)
T3 construct: Full-length recombinant human laminin isoform (BioLamina); chains read from the isoform name
Protocol: as §1

laminin-421 = molecular target: T4, laminin-421 (human, UniProt Q16363 25-1823; P55268 33-1798; P11047 34-1609)
T4 construct: Full-length recombinant human laminin isoform (BioLamina); chains read from the isoform name
Protocol: as §1

laminin-511 = molecular target: T5, laminin-511 (human, UniProt O15230 36-3695; P07942 22-1786; P11047 34-1609)
T5 construct: Full-length recombinant human laminin isoform (BioLamina); chains read from the isoform name
Protocol: as §1

laminin-521 = molecular target: T6, laminin-521 (human, UniProt O15230 36-3695; P55268 33-1798; P11047 34-1609)
T6 construct: Full-length recombinant human laminin isoform (BioLamina); chains read from the isoform name
Protocol: as §1

binding result (laminin-111): binds
binding result (laminin-211): binds
binding result (laminin-411): binds
binding result (laminin-421): binds
binding result (laminin-511): binds
binding result (laminin-521): binds
B1: CXCL-12γ (ligand)
chain: not shown
notes: mature

From patent US20240092867A1 (UNIVERSITY OF CHICAGO, published 2024)
